The text below walks through data of ChEMBL document CHEMBL4888484, “Replenishing the malaria drug discovery pipeline: Screening and hit evaluation of the MMV Hit Generation Library 1 (HGL1) against asexual blood stage Plasmodium falciparum ,using a nano luciferase reporter read-out” (2022).

Among all 150,000 compounds or so, about 540 (0.36%) showed an effect of 50% or more. Some of the results follow.

The test system of the experiment is Plasmodium falciparum. Put plainly: Primary screen in NF54 nanoGlo assay, in single point, at 2uM, 72h; a lower Z score goes with more inhibition. The format is functional, Erythrocyte. The following applies: timepoint 72 hour.
Turning to `CC1=C[C@@H](c2ccc(Cl)cc2)N2N=CNC2=N1`, the “% Inhibition” value was 29% and the Z score is -3.28.

As to `Cc1nsc(NC(=O)c2cccc(=O)n2CCOc2ccccc2Cl)n1`, the “% Inhibition” value is on record as -9% and the Z score is 1.42.

In the case of `CCc1oc(C(=O)NCCc2ccc(O)cc2)cc1CN(CC)CC`, the “% Inhibition” value is -8% and the Z score was 1.62.

In the case of `CCC[C@@H](CNC(=O)[C@H]1CC[C@H](O)CC1)N(C)C`, the “% Inhibition” value is given as -1% and the Z score was determined as 0.18.

With `CN(Cc1cc[nH]n1)c1ccc(F)cn1`, the “% Inhibition” value was -5% and the Z score amounted to 0.9.

Regarding `OC1(CN2CCC(C(F)(F)F)(C(F)(F)F)C2)CCOCC1`, the “% Inhibition” value amounted to 3% and the Z score is listed as -0.33.

As to `CCC[C@H]1C(=O)NCCN1C(=O)c1cnn(CC2CCOCC2)c1C`, the “% Inhibition” value worked out at 37% and the Z score is -0.98.

Regarding `CCn1c(CN2CCN(c3ncccn3)CC2)nc2cc(F)ccc21`, the “% Inhibition” value is listed as -16% and the Z score is 2.05.

For `CN(Cc1csc(-c2ccccn2)n1)C1C2CCOC2C1(C)C` (stereo unspecified), the “% Inhibition” value is given as -14% and the Z score was 1.51.

For `c1cc2c(c(-c3nc(C4CCC4)n[nH]3)c1)OCC2`, the “% Inhibition” value was -14% and the Z score came to 2.71.

`O=C(CC1CCCC1)Nc1ccccc1-c1nc2ccccc2s1`: the “% Inhibition” value is reported as -2% and the Z score is 0.28.

Take `CCN1C[C@H](CN(C)C(=O)c2ccc3c(c2)CCO3)Oc2ccccc21`: the “% Inhibition” value is listed as -15% and the Z score worked out at 1.89.

Turning to `C[C@H](NC(=O)N1CCN(C)CCN(C)CC1)c1cccc(O)c1`, the “% Inhibition” value was -10% and the Z score amounted to 1.28.

Turning to `O=C(NC1CC1)C1CCN(c2nc3ccc(-c4cccnc4)nc3s2)CC1`, the “% Inhibition” value is listed as -14% and the Z score turned out to be 1.53.

With `CCOCCOCc1cccc(NC(=O)c2cncc(O)c2)c1C`, the “% Inhibition” value came to 6% and the Z score is on record as -1.04.

`FC(F)(F)c1cccc(N2CCN(c3ncnc4c3nc3n4CCCCC3)CC2)c1`: the “% Inhibition” value was 0% and the Z score was 0.03.

On to `CC(=O)NC1CCN(C(=O)NCC2(C)OCCc3sccc32)C1` (stereo unspecified), for which the “% Inhibition” value is -3% and the Z score turned out to be 0.53.

Regarding `CC(C)c1cc([C@@H]2CCCN2C(=O)c2cnn3c(C(F)(F)F)cc(-c4ccccc4)nc23)no1`, the “% Inhibition” value is given as -13% and the Z score is 1.81.

Regarding `O=S1(=O)CCN(c2cc(NS(=O)(=O)c3cccc(-n4cnnn4)c3)ccc2F)CC1`, the “% Inhibition” value is listed as -14% and the Z score is 2.18.

For `CCOC(=O)Oc1c(OC)cc(C(=O)Nc2ccc3c(c2)sc(=O)n3C)cc1OC`, the “% Inhibition” value is 33% and the Z score is -4.43.

On to `O=C1C[C@H](c2ccc3nccnc3c2)c2cn(Cc3ccccc3)c3cccc(c23)N1`, for which the “% Inhibition” value is listed as -16% and the Z score is 2.65.

Regarding `Cc1ccc(OCC[C@H]2CCN(C(=O)CCn3nc(C)cc3C)C2)cc1`, the “% Inhibition” value was -7% and the Z score is on record as 1.33.

Turning to `CC1(C)C[C@H](CC(=O)Nc2ccccn2)C(=O)O1`, the “% Inhibition” value was 3% and the Z score is reported as -0.41.

Turning to `COc1cc(C(=O)NC2CCN(C)C(C)C2)cc(C)n1` (stereo unspecified), the “% Inhibition” value is -5% and the Z score is 0.78.

For the compound `O=C(NCc1ccccc1F)C1CN(c2nc3ccccc3s2)C1`, the “% Inhibition” value was -4% and the Z score is 0.64.

Take `CN(C[C@H]1CCCCO1)c1cc(NC2CC2)nc(N)n1`: the “% Inhibition” value is -5% and the Z score is reported as 0.75.

With `COc1cc(CN2CCCC[C@H]2c2ncc[nH]2)cc(Cl)c1OCC(N)=O`, the “% Inhibition” value was -1% and the Z score was determined as 0.21.

On to `O=C(CC[C@H]1CCCO1)Nc1nc(-c2ccc3c(c2)OCO3)cs1`, for which the “% Inhibition” value is -1% and the Z score is 0.21.

Take `Cc1ccc(CNC(=O)[C@H]2CCc3cncn3C2)c(=O)n1C`: the “% Inhibition” value is listed as -3% and the Z score amounted to 0.45.

Consider `CCC(C)(C)NC(=O)CN1CCCC(C)(C)CC1`, for which the “% Inhibition” value is given as -10% and the Z score is listed as 1.21.

For `COCC(=O)N1CCC[C@H]1c1nn(C)c(=O)n1Cc1ccccc1`, the “% Inhibition” value was -4% and the Z score is 0.55.

On to `CN(C1C=CCCC1)C(CC(N)=O)c1ccccc1` (stereo unspecified), for which the “% Inhibition” value was 1% and the Z score is recorded as -0.25.

As to `Cc1csc(N(CC(F)(F)F)C(=O)c2cn(C(C)(C)C)nn2)n1`, the “% Inhibition” value is on record as 3% and the Z score is listed as -0.55.

Turning to `CCn1cc(CNC(=O)c2cnc(-c3cccnc3)nc2)cn1`, the “% Inhibition” value is -10% and the Z score is listed as 1.45.

On to `CC(C)(C)OC(=O)NC1CC(NCC(=O)NCC2CC2)C1(C)C` (stereo unspecified), for which the “% Inhibition” value was found to be 0% and the Z score turned out to be 0.05.

With `CS(=O)(=O)N1CCC2(CC1)C[C@@H]2NC(=O)c1ccncc1`, the “% Inhibition” value is on record as -12% and the Z score is 1.44.

In the case of `c1cc(COc2ccc3c(c2)OCO3)no1`, the “% Inhibition” value worked out at 27% and the Z score is -3.08.

In the case of `O=C(NCCC1=CCCN(Cc2c[nH]cn2)C1)Nc1ccccc1`, the “% Inhibition” value is recorded as -6% and the Z score stood at 0.89.

Regarding `CC1CCCCN1C(=O)C1CCCN(S(=O)(=O)c2ccc3c(c2)NC(=O)CO3)C1` (stereo unspecified), the “% Inhibition” value is -3% and the Z score is recorded as 0.52.

Consider `COC[C@H]1CCCN(C(=O)CC(C)(C)C#N)CC1`, for which the “% Inhibition” value is -5% and the Z score is listed as 0.91.

For `N#C[C@@H](NC(=O)c1cc2n(n1)CCCO2)c1ccc(OC(F)(F)F)cc1`, the “% Inhibition” value is on record as -17% and the Z score turned out to be 1.95.

As to `CCOc1ccc(C(=O)Nc2cc(C(F)(F)F)ccc2Cl)nn1`, the “% Inhibition” value is listed as -8% and the Z score is 0.87.

For `COc1cccc(CN2CCCn3cccc3[C@H]2c2ccc(C)c(C)c2)c1OC`, the “% Inhibition” value is -5% and the Z score is listed as 1.01.
